According to PubChem BioAssay AID488969 (Vanderbilt High Throughput Screening Facility, 2010):
In all, about 110,000 compounds were measured (“z-score”: median about -0.1, highest 2% from about 2 on). The list shows a part of the results. The source made the active and inactive calls.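 The calls were made as follows: active = z-score in the third read window above 3 or below -3; inactive = the rest.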

The molecules below were run against Metabotropic glutamate receptor 8 (Rattus norvegicus) (UniProt P70579) (assay: rat mGluR8 modulators via GIRK flux, primary screen, cell-based, thallium flux, HTS (AID 488969)). Conditions: HEK293 rat mGluR8, GIRK (G protein-gated inwardly rectifying potassium channel) thallium flux, FluoZin2; at 10 µM; stronger effect = higher value; submaximal glutamate (EC20) added with thallium.
Chain of UniProt P70579 (P70579 whole entry, looked up): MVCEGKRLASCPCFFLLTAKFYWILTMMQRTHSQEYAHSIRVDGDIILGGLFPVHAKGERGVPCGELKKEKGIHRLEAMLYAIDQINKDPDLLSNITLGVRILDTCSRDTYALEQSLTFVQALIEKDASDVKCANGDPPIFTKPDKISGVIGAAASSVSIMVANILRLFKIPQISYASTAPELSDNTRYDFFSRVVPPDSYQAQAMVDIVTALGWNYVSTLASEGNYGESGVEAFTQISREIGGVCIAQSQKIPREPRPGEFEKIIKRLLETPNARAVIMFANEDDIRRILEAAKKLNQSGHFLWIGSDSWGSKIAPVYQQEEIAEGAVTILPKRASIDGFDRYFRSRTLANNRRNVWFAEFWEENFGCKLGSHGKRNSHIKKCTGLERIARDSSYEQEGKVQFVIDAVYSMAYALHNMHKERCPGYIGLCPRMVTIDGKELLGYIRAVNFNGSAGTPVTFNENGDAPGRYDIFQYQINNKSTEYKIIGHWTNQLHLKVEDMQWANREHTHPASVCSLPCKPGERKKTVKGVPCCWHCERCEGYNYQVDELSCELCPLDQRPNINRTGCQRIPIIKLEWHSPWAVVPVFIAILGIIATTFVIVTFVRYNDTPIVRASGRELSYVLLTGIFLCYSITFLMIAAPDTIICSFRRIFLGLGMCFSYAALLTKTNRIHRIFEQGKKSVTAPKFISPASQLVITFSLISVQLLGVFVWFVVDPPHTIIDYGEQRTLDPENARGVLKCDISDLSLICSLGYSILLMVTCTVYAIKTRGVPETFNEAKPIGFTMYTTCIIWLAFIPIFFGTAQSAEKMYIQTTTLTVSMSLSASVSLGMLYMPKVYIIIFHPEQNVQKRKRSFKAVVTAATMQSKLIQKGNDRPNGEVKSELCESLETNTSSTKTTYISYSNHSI
`S=C(NCCc1ccccc1)NCc1cccs1` showed a z-score of 0.587.
`O=C(CCN1C(=O)c2ccccc2C1=O)NC(=S)Nc1cccc(Cl)c1` was tested, and the z-score was 0.175.
`CCOc1ccccc1C(=O)NCCC(=O)O` showed a z-score of 0.294.
In the case of `CCCCCn1cnc2c(sc3nc4c(cc32)CSC(C)(C)C4)c1=O`, the z-score was 0.00817.
Work on `O=C(Cn1nnc(-c2cccs2)n1)NCCc1ccccc1` yielded a z-score of -0.11.
With `Cc1cc(=O)n(CCC(=O)O)c2ccccc12` the z-score was -1.19.
`CCCn1nnnc1NCc1ccccc1OCc1cccs1` gave a z-score of 0.0615.
`CS(=O)(=O)N(CCc1ccccc1)CC(=O)Nc1ccc(OCc2ccccc2)cc1` was tested, and the z-score was 1.43.
Molecule `O=C(NCC(c1ccco1)N1CCCC1)c1ccccc1F` (configuration not stated) has a z-score of 0.262.
For `Cc1ccc(S(=O)(=O)NNC(=O)c2snnc2C)cc1`, the z-score was 0.0819.
`Cc1csc(NC(=O)CSc2nc(C)nc3c2c(=O)n(C)c(=O)n3C)n1` was tested, and the z-score was -0.477.
For `COc1cccc(-n2c(C)nc3cc(C(=O)O)ccc32)c1`, the z-score was -0.132.
`Cc1ccc(Cn2ccc(NC(=O)c3cc4nc(-c5ccco5)cc(C(F)(F)F)n4n3)n2)cc1` was tested, and the z-score was 0.0612.
For `CCOC(=O)CSc1nc2sc(C)c(C)c2c(=O)[nH]1`, the z-score was -0.485.
`Cc1cccn2cc(CSc3ccccc3N)nc12` gave a z-score of -0.241.
Molecule `CCc1ccccc1N1CCN(S(=O)(=O)c2cc(OC)ccc2OC)CC1` has a z-score of -0.412.
In the case of `Cc1nn(Cc2ccccc2)c2c1C(c1cccc(Cl)c1)C(C#N)=C(N)O2` (configuration not stated), the z-score was -0.363.
With `CCn1c(SCC(=O)Nc2ccc(C)cc2)nnc1-c1ccc(O)cc1` the z-score was -0.0225.
Molecule `COc1cccc(OCC(=O)NNC(=O)c2ccc(-c3ccccc3)cc2)c1` has a z-score of 0.902.
For `CCC(C)(C)n1nnnc1CN1CCC(NC(=O)c2ccc(Br)cc2)CC1`, the z-score was -0.157.
Molecule `COc1cccc(-c2nn(-c3ccccc3)cc2C(=O)n2nnc3ccccc32)c1` has a z-score of -0.256.
Molecule `Cc1cccc(C)c1OCCCCn1cnc2ccccc2c1=O` has a z-score of -0.233.
For `COc1ccc(-n2c(C)c3c(OC)cccc(=O)c3c2C)cc1`, the z-score was -0.867.
`O=C(CN1CCC(n2nnc3cc(F)ccc32)CC1)NCCc1nc2ccccc2[nH]1` gave a z-score of -0.24.
`Cn1c(C(=O)NCC2CCCO2)cc2c(=O)[nH]c3ccccc3c21` (configuration not stated) gave a z-score of 0.496.
Molecule `COC(=O)c1nnn(-c2nonc2N)c1-c1cccs1` has a z-score of 0.385.
Molecule `CCN(CCCNC(=O)CCNC(=O)Cn1cnc2ccccc2c1=O)c1cccc(C)c1` has a z-score of 0.0158.
`COc1ccc2nc(NC(=O)C3CCCN(S(=O)(=O)c4cccc5nonc45)C3)sc2c1` (configuration not stated) was tested, and the z-score was 0.126.
With `O=C(NCc1ccccc1)N[C@@H](Cc1ccccc1)C(=O)O` the z-score was 0.167.
`O=C(Nc1cccc(Cl)c1)Nc1cccc(Cl)c1` showed a z-score of 0.0262.
In the case of `C=C(C)COc1ccc(-c2[nH]ncc2Oc2ccccc2OCC)c(O)c1`, the z-score was -1.64.
In the case of `CC(C)Nc1nc(Cl)nc(NN(C)c2nc(N(C)C)nc(N(C)C)n2)n1`, the z-score was 0.269.
Molecule `CC(NC(=O)CSC1=NCCS1)c1ccccc1` (configuration not stated) has a z-score of 0.151.
With `O=C(Cn1cc(C(F)(F)F)ccc1=O)Nc1cccc(S(=O)(=O)N2CCOCC2)c1` the z-score was -0.446.
`COC(=O)C(Cc1ccc(O)cc1)NC(=O)c1ccccc1` (configuration not stated) gave a z-score of -0.0744.
In the case of `Cc1cc(C)cc(NC(=O)c2ccc3nc[nH]c3c2)c1`, the z-score was -0.137.
For `Cc1c(C(=O)N2CCOCC2)[nH]c2c1C(=O)CC(c1ccccc1Cl)C2` (configuration not stated), the z-score was -0.491.
For `NS(=O)(=O)c1ccc(NC(=S)NC2CCCC2)cc1`, the z-score was 0.0124.
`O=C(Cn1cc(C(=O)c2ccco2)c2ccccc21)Nc1ccccc1` was tested, and the z-score was 0.311.
Molecule `COCCN1Cc2cccc(C(=O)Nc3ccc(-c4nc5ccccc5[nH]4)cc3)c2C1=O` has a z-score of -0.0431.
In the case of `CC1CCc2nc(NC(=O)Cc3cccs3)sc2C1` (configuration not stated), the z-score was -0.0944.
Work on `CCOc1cc(C2C(C#N)=C(N)OC(C)=C2C(C)=O)cc(Br)c1O` (configuration not stated) yielded a z-score of -1.08.
Molecule `N#Cc1c(-c2ccc(F)cc2)nc2n(c1=O)CCS2` has a z-score of -0.0466.
`COc1cccc(N2CC(C(=O)Nc3ccc(C(=O)OC(C)C)cc3)CC2=O)c1` (configuration not stated) was tested, and the z-score was -0.924.
Work on `O=C(CSc1ccc(Cl)cc1Cl)N1CCC(c2nc3ccccc3s2)CC1` yielded a z-score of -0.291.
`CCOc1ccc(-n2c(N)c(C(=O)NCC3CCCO3)sc2=S)cc1` (configuration not stated) gave a z-score of 1.74.
`CC1=CC2=C(OC1N(C)C)c1cccc3cccc(c13)C2=O` (configuration not stated) gave a z-score of -1.28.
For `COc1cccc(N2CCN(C(=O)C3CCCN(S(=O)(=O)c4cnc[nH]4)C3)CC2)c1` (configuration not stated), the z-score was 0.142.
Work on `Cc1cc(Nc2nc3ccccc3nc2Cl)n(-c2ccc([N+](=O)[O-])cc2)n1` yielded a z-score of -0.179.
With `Cc1noc2ncnc(Oc3ccccc3)c12` the z-score was 0.141.
In the case of `Cc1ccc(N/C(N)=N/c2nc(CSc3ccc(C)cc3)cc(=O)[nH]2)cc1`, the z-score was -0.281.
Molecule `CCOC(=O)c1c(NC(=O)CSc2nnc(CNc3ccc(F)cc3)o2)sc(C(C)=O)c1C` has a z-score of -0.413.
Molecule `C=CCn1c(SCC(=O)Nc2sccc2C(N)=O)nc2ccccc2c1=O` has a z-score of -0.59.
With `COC(=O)c1cccc(NC(=S)NCCC2=CCCCC2)c1` the z-score was 0.38.
`S=C1CCSc2ccc(Cl)cc2N1` was tested, and the z-score was active: 9.14.
Molecule `O=C(NCC1CCCO1)c1ccccn1` (configuration not stated) has a z-score of 0.397.
`CC(C)C[C@H](NC(=O)OC(C)(C)C)C(=O)N1CCC(C(=O)O)CC1` showed a z-score of -0.14.
Work on `COC(=O)C1=C(C)N(C)C(C)=C(C(=O)OC)C1c1ccncc1` yielded a z-score of -0.0829.
`O=C(c1cccs1)N1CCN=C1SCc1ccccc1` was tested, and the z-score was -0.398.
With `O=[N+]([O-])c1ccccc1N/N=C/c1c[nH]c2ccccc12` the z-score was -0.147.
`O=[N+]([O-])c1ccc(Cl)c(-c2ccc(/C=N/c3c(-c4ccco4)nc4ccccn34)o2)c1` gave a z-score of 0.336.
`O=NC1=C(c2c(O)[nH]c3ccccc23)CCCC1` gave a z-score of 0.537.
In the case of `CCOC(=O)Cc1csc(NC(=O)c2sc3nc4ccc(CC)cc4cc3c2N)n1`, the z-score was -0.0625.
Molecule `CCC(C)(C)NC(=O)c1cc([N+](=O)[O-])ccc1N1CCOCC1` has a z-score of -0.0236.
`CS(=O)(=O)N1CCC(C(=O)O)CC1` gave a z-score of 0.448.
`CCOC(=O)CSc1nnc(-c2ccc(Cl)cc2Cl)o1` was tested, and the z-score was -0.507.
`Clc1ccccc1-c1ccc(CN2CCN(c3ccccc3)CC2)o1` gave a z-score of -0.108.
`O=C(CSc1ccc(Cl)cc1)N1CCN(c2ccc([N+](=O)[O-])cc2Cl)CC1` was tested, and the z-score was -0.105.
`CN(c1ccccc1)S(=O)(=O)c1ccc(C(=O)NCC2CCCO2)cc1` (configuration not stated) was tested, and the z-score was -0.23.
`Cc1ccc(OCC(O)CN2C(=O)NC(C)(C)C2=O)cc1C` (configuration not stated) showed a z-score of -0.0562.
Molecule `CN(Cc1nc2ccccc2c(=O)[nH]1)C(=O)c1ccc(S(=O)(=O)N(C)C)cc1` has a z-score of -0.0175.
`COc1ccc(CC(=O)O/N=C(\N)Cc2ccc(OC)c(OC)c2)cc1` gave a z-score of 0.175.
